Assay results as given in publication PMC2974439 (Biochemistry, 2010).

Target: T1, EntF-H6 (E. coli, UniProt P11454 1-1293)
T1 sequence (looked up): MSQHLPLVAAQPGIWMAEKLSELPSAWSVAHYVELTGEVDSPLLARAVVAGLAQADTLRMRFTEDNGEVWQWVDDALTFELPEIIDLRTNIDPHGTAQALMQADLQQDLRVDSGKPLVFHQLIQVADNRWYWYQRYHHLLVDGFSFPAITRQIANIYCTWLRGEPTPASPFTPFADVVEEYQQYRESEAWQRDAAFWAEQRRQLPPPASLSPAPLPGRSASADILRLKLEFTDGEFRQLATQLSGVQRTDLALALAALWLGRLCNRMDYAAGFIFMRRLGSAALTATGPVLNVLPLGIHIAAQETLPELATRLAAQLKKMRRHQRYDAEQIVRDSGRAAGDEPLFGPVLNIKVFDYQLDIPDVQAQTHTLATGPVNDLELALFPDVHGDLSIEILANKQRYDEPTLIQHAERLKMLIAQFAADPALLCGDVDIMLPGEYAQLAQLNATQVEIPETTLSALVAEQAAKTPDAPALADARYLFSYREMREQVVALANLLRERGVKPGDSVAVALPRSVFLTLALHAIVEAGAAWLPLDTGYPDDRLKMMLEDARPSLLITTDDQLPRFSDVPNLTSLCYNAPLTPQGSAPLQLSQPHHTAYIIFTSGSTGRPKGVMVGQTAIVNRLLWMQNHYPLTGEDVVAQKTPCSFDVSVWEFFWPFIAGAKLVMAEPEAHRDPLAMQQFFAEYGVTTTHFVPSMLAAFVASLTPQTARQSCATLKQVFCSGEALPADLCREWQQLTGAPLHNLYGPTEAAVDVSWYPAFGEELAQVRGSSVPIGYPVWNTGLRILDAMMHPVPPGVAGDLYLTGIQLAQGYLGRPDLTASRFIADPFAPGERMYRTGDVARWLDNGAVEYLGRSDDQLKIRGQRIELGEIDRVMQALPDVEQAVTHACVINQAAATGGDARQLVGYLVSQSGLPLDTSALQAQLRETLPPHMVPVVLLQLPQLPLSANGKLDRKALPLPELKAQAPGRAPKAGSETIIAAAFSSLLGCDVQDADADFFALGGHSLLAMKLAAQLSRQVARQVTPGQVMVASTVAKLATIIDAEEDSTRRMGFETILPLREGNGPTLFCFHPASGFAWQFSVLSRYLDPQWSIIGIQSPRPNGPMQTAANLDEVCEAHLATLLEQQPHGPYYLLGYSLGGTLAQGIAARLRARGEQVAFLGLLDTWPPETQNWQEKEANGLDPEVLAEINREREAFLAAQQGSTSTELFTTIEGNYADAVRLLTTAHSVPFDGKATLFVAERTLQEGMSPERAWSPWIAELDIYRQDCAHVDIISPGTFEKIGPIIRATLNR
Assay: co-purification after co-expression

B1: YbdZ (natural protein, E. coli, UniProt P18393 1-72, looked up)
chain: MAFSNPFDDPQGAFYILRNAQGQFSLWPQQCVLPAGWDIVCQPQSQASCQQWLEAHWRTLTPTNFTQLQEAQ
stoichiometry N: 0.6 mol YbdZ per mol EntF
